Measurements as given in the supplement of paper PMC10126150.
Sequences with one replicate were seen in a single cluster, so their values are uncertain.

Tested on: ATP
Experiment: switch fluorescence ratio, 500 uM ATP over buffer (Cy3 cluster intensity, sum of 5 cycles each) (fold (ratio)); higher = stronger signal-on switching upon ATP binding; sequences stand for … in TCGTCGGCAGCGTCAGATGTGTATAAGAGACAGTTTTTTTTTTTTTTTTTTTTTTTTT…TC
Details: aptamer strand: ATP DNA aptamer (quencher-CACCTGGGGGAGTATTGCGGAGGAAGG + anchor), 100 nM annealed; ATP concentration: 500 uM; one replicate
Procedure, shortened: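 Imaging in selection buffer was followed by imaging after 15 min with 500 uM ATP at 22 °C, for Cy3-labelled switching-strand clusters annealed to 100 nM quencher-labelled ATP aptamer on a modified Illumina MiSeq flow-cell. Five of these buffer/ATP cycles ran, separated by NaOH stripping and re-annealing. The fluorescence ratio per cluster is summed target-cycle over summed buffer-cycle Cy3 intensity, averaged per switch-domain sequence; clusters outside 100-1000 RFU were removed.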
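Note: ATP exposure 15 min at 22 °C before imaging.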

Row | Sequence | switch fluorescence ratio
1 | ATACGTGCTA | 1.01
2 | ATACGTGTGT | 1.01
3 | ATACTCATGG | 0.972
4 | ATACTCTGGG | 0.982
5 | ATACTGCCTT | 1.09
6 | ATACTGGTCT | 1.06
7 | ATACTTCGTT | 1.07
8 | ATACTTTG | 1.06
9 | ATAGAAGAGG | 0.969
10 | ATAGAAGCTA | 1
11 | ATAGAAGTTC | 1.02
12 | ATAGACGTGG | 1.04
13 | ATAGAGGGAC | 1.05
14 | ATAGAGTGTG | 0.979
15 | ATAGAGTTTT | 0.969
16 | ATAGATGGAT | 1.1
17 | ATAGCATTTC | 1.38
18 | ATAGCCA | 1.23
19 | ATAGCCATTA | 0.993
20 | ATAGCGAGTG | 0.986
21 | ATAGCTAGAG | 1.03
22 | ATAGGACGTC | 1.02
23 | ATAGGACTCA | 1.06
24 | ATAGGAGATG | 0.985
25 | ATAGGCAGGT | 1.02
26 | ATAGGCGACA | 1.01

Row | Sequence | switch fluorescence ratio
27 | ATAGGCTTTA | 0.979
28 | ATAGGGGATG | 1
29 | ATAGGTAAA | 1.05
30 | ATAGGTATC | 0.984
31 | ATAGGTCAC | 1.02
32 | ATAGGTCGG | 1
33 | ATAGGTGTGT | 0.984
34 | ATAGGTTCTG | 1.05
35 | ATAGTACCAA | 1.05
36 | ATAGTAGGAA | 0.981
37 | ATAGTAGGCG | 1.03
38 | ATAGTATAAT | 0.968
39 | ATAGTCTGCT | 1.05
40 | ATAGTGCAC | 1.01
41 | ATAGTGCGGG | 0.974
42 | ATAGTGGATC | 1.06
43 | ATAGTGGCCT | 1.02
44 | ATAGTGGGG | 0.937
45 | ATAGTGTTTT | 0.987
46 | ATAGTTACGG | 1.06
47 | ATAGTTCAG | 0.992
48 | ATAGTTTCTG | 1.02
49 | ATATAATGCT | 0.942
50 | ATATACATTT | 1.03
51 | ATATACCGGA | 1.08
52 | ATATACGGAT | 1.02

Row | Sequence | switch fluorescence ratio
53 | ATATACGGGC | 1.03
54 | ATATACTGTG | 1.02
55 | ATATAGAGAG | 1.01
56 | ATATAGATAC | 1.11
57 | ATATAGGTCG | 1
58 | ATATAGTGCC | 0.992
59 | ATATCAAAAA | 1.01
60 | ATATCAAGCG | 0.986
61 | ATATCCAGAC | 0.986
62 | ATATCGATGG | 1.01
63 | ATATCTCCTT | 1.04
64 | ATATCTGGAG | 0.95
65 | ATATGACTCA | 1.03
66 | ATATGAGCAT | 0.975
67 | ATATGAGGGC | 1
68 | ATATGCTGGG | 0.982
69 | ATATGGATCA | 1.01
70 | ATATGGCAGC | 0.96
71 | ATATGTCTTG | 1.01
72 | ATATGTTTCT | 1.02
73 | ATATTAACCA | 0.996
74 | ATATTAATT | 0.963
75 | ATATTCAATG | 1.03
76 | ATATTCACC | 1.06
77 | ATATTCGTCA | 0.971
78 | ATATTCTCGG | 0.984

Row | Sequence | switch fluorescence ratio
79 | ATATTCTGAG | 0.965
80 | ATATTGAAGA | 0.989
81 | ATATTGAATC | 0.972
82 | ATATTGCCCG | 0.95
83 | ATATTGTGAT | 0.99
84 | ATATTTATTA | 0.999
85 | ATATTTTGT | 0.956
86 | ATCAACAGTT | 0.935
87 | ATCAACCAGA | 1.03
88 | ATCAACTACC | 1.18
89 | ATCAAGATGT | 0.976
90 | ATCAAGTATA | 0.963
91 | ATCAAGTGTT | 0.961
92 | ATCAATCATC | 0.997
93 | ATCACAGAAC | 1.24
94 | ATCACCACCG | 1.17
95 | ATCACCGCCG | 1.09
96 | ATCACGAACG | 1.3
97 | ATCACGCAAT | 5.59
98 | ATCACGCACG | 1.64
99 | ATCACGCTTC | 1.1
100 | ATCACTTCTG | 1.03
101 | ATCAGAGGGC | 0.982
102 | ATCAGGGTGA | 0.991
103 | ATCAGTAAGT | 1.02
104 | ATCAGTACAA | 1.09

Row | Sequence | switch fluorescence ratio
105 | ATCAGTCCTC | 1.01
106 | ATCAGTGCCC | 1
107 | ATCATACGAG | 1.05
108 | ATCATATTAT | 1.03
109 | ATCATCGTAA | 1.04
110 | ATCATCGTAG | 0.974
111 | ATCATGATCT | 1.23
112 | ATCATGGAAA | 0.965
113 | ATCATGTCCT | 1.07
114 | ATCATTCCTA | 0.994
115 | ATCATTCTGT | 1.04
116 | ATCCAACTCG | 1.02
117 | ATCCAATGCG | 0.976
118 | ATCCACCTTG | 1.03
119 | ATCCAGAATA | 0.977
120 | ATCCAGCGCG | 1.04
121 | ATCCAGTCGG | 1.03
122 | ATCCATGACT | 1.03
123 | ATCCCACTCT | 1.01
124 | ATCCCTAGTT | 1.02
125 | ATCCCTATTT | 1.02
126 | ATCCCTTCTT | 1.06
127 | ATCCCTTTCG | 0.999
128 | ATCCTACCCC | 1.2
129 | ATCCTAGAAG | 1.02
130 | ATCCTCATAT | 1.01

Row | Sequence | switch fluorescence ratio
131 | ATCCTCCCTT | 1.3
132 | ATCCTGATCT | 1.04
133 | ATCCTGGAT | 0.967
134 | ATCCTGGCCT | 1.09
135 | ATCCTGGTCT | 1.02
136 | ATCCTGGTTC | 0.994
137 | ATCCTTCGTC | 1.97
138 | ATCCTTTATT | 0.992
139 | ATCGAAGGAG | 0.989
140 | ATCGAATGT | 0.961
141 | ATCGAATTCC | 1.03
142 | ATCGACAATC | 1.53
143 | ATCGAGACTA | 1.04
144 | ATCGAGATCA | 1.02
145 | ATCGAGCCAC | 1.02
146 | ATCGAGCTGA | 1.01
147 | ATCGAGTCGC | 1
148 | ATCGAGTGCA | 1.01
149 | ATCGATCCGT | 1.04
150 | ATCGATGTTC | 1.03
151 | ATCGCAAGTG | 1.05
152 | ATCGCAGGA | 0.932
153 | ATCGCCGCGG | 0.981
154 | ATCGCGCGTA | 0.979
155 | ATCGCGGCTT | 0.966
156 | ATCGCGGGGC | 1.13

Row | Sequence | switch fluorescence ratio
157 | ATCGCTAGCA | 1.01
158 | ATCGGAAACG | 1.02
159 | ATCGGACCAT | 1.04
160 | ATCGGACGA | 1.09
161 | ATCGGAGCT | 1.06
162 | ATCGGCAAGG | 1.17
163 | ATCGGCAATG | 1.79
164 | ATCGGCCGAT | 0.916
165 | ATCGGCCGT | 1.04
166 | ATCGGCTAAT | 1.01
167 | ATCGGCTATA | 1.11
168 | ATCGGCTCGT | 1.01
169 | ATCGGGATTG | 0.995
170 | ATCGGGGGAT | 1.03
171 | ATCGGTCGCA | 1.02
172 | ATCGTAGTGA | 0.998
173 | ATCGTATCAT | 1.01
174 | ATCGTCGCGG | 1.01
175 | ATCGTCTTAT | 0.972
176 | ATCGTGATCG | 1.09
177 | ATCGTTAGGG | 0.944
178 | ATCGTTGTTC | 1.01
179 | ATCTAACA | 1.03
180 | ATCTAACCAG | 1.05
181 | ATCTAACTTG | 1.02
182 | ATCTAAGGCC | 0.994

Row | Sequence | switch fluorescence ratio
183 | ATCTACAGGA | 1.01
184 | ATCTACCAAT | 1.12
185 | ATCTACGCTT | 1.38
186 | ATCTAGGG | 1.12
187 | ATCTAGGGG | 1.02
188 | ATCTATAAC | 1.02
189 | ATCTATATG | 1
190 | ATCTCCAAAA | 1.62
191 | ATCTCCATTC | 1.02
192 | ATCTCCGATT | 1.04
193 | ATCTCCTCAG | 1.13
194 | ATCTCTAATG | 0.943
195 | ATCTCTATGC | 0.963
196 | ATCTGATGAT | 1.02
197 | ATCTGATTGG | 1.01
198 | ATCTGGAAGC | 1.41
199 | ATCTGGAAGG | 0.951
200 | ATCTGGACTG | 0.932
201 | ATCTGTCCGC | 1.37
